Read counts are not given, so values of variants with three or more changes are uncertain.
B1: OR4K15 (parent)
chain: GUUAACGGUCAUAGGCCAUGGAAACUAGGAGCACCAUUUCGCUGCCAGUGAAGAAAUGAACAAAGAAAAUCUGGGCCAGGCAGGCAUCAAAAGAAAUAGUCUUGCGCUCAACCAGAAAGUCUGUAAUCAUUUUAAGGGUA

Variants of: B1
Experiment: self-cleavage, relative activity (ratio to wild type); higher = more cleavage; in vitro, sequencing; the parent is a self-cleaving ribozyme
U12C A23G U39C A62U U102A gave a self-cleavage of 0.48. In the case of U12C U87C U108A, the self-cleavage is reported as 0. For A13G A27G U97C, the self-cleavage was 1.06. In the case of U12C U57C A62G A90G, the self-cleavage is reported as 0.82. A11G U127C U131C gave a self-cleavage of 0.47. In the case of A13G A22G U87C, the self-cleavage is reported as 1.09. U12C A51G A62U G73U showed a self-cleavage of 0.21. Variant U12C A62G A82U A92G has a self-cleavage of 0.2. U12C A52G U103C showed a self-cleavage of 0.89. In the case of A13G G80U G106A, the self-cleavage is reported as 0.07. U12A A59U A78C A90G gave a self-cleavage of 0.08. U12C A95G A126G A140G showed a self-cleavage of 0.68. Work on A13G A82U U122A yielded a self-cleavage of 0.33. A13G A23G U49C A67G gave a self-cleavage of 1.37. U12A A55G A126G gave a self-cleavage of 1.08. Variant A13G A69G U97C has a self-cleavage of 0.67. A13G A30U A60G U122C gave a self-cleavage of 0.6. With U12A G15A A55G A78G U102C A126G the self-cleavage was 0.35. U12C A24G A117U showed a self-cleavage of 1.02. With U12C U38C A117G the self-cleavage was 0.95. In the case of A11U A56G G73U A78G U120C, the self-cleavage is reported as 0.05. For A11U G104A A140G, the self-cleavage was 0.01. With A11U A62U G74U U108C the self-cleavage was 0.01. U12C G28U U39C A51C U130C gave a self-cleavage of 0.7. Variant A13G A33G U43A A82G A134G has a self-cleavage of 0.27. U12C A27G A94G A116G U127C showed a self-cleavage of 0.14. A11U U57C U122C gave a self-cleavage of 0.78. With U12C A13U C17U A67G A89G the self-cleavage was 1.22. For A11U U26C U37C U39C A59U A91G A96G, the self-cleavage was 0.96. In the case of U12C A30G A54G A66G A111G, the self-cleavage is reported as 0.01. Work on U12C U100A U102C U132C yielded a self-cleavage of 1.44. A13G A23G A63G G106A gave a self-cleavage of 0.04. With U12C A47U C109U the self-cleavage was 0.36. For A13C U39C A51G A86G A94G C107U U130C, the self-cleavage was 0.01. Work on U12A A86G A90G U108A yielded a self-cleavage of 0.04. With A13G A54G A114U the self-cleavage was 0.19. Work on U12C A23G C45A A78U yielded a self-cleavage of 0.65. Work on U12C A55G U120C yielded a self-cleavage of 0.46. A11U A30G A67G A95G U108A showed a self-cleavage of 0.01. U12C G75C A114C gave a self-cleavage of 0.02. Variant A11U C25U U43C A62G A64G has a self-cleavage of 0.2. With U12A G75A A94G the self-cleavage was 0.08. In the case of U12C G28C A60U, the self-cleavage is reported as 2.69. For A11U A82G U100A, the self-cleavage was 0.11. For A13G A22G U49C U72C U103A A114U G123A, the self-cleavage was 0. With U12A A82G A90G A94G A126G U130C the self-cleavage was 0.1. Variant A13G U19C A69G C81U A92C A94G U103C U122C has a self-cleavage of 0.02. With U12A A55G A110G the self-cleavage was 0.31. U12C A55U A60U A64G U97C U108C U131A showed a self-cleavage of 0.03. With A13G A67G A116G the self-cleavage was 0.19. For U12C A98C A135U, the self-cleavage was 1.75. With U12G G14U A22G A66G U122C U131C the self-cleavage was 0.84. A11U U38C U57A gave a self-cleavage of 0.8. Work on A13G A51G A68G A117G yielded a self-cleavage of 1.36. For A13G A60G G75U U97C A118G U127C, the self-cleavage was 0.05. Variant U12C A60G U100C A111G has a self-cleavage of 0.12. In the case of A13G A60U A67G, the self-cleavage is reported as 0.65. U12C U57A A66G gave a self-cleavage of 1.12. In the case of U12C G44A A52G A82G, the self-cleavage is reported as 0.5. A13G U43A U127C showed a self-cleavage of 0.97. With U12G A69G A96G A114U the self-cleavage was 0.04. With A11U U122C G138A the self-cleavage was 1.36. In the case of A11U U43C A54G A62G U70C A140G, the self-cleavage is reported as 0.76. A11U U19A A98G A126G showed a self-cleavage of 0.04. A11U A55G U103C C113U gave a self-cleavage of 0. Work on U12C A13G U49C A55G yielded a self-cleavage of 0.56. In the case of U12C A62G A129G, the self-cleavage is reported as 1.46. Work on A13G U38C A60G A96G yielded a self-cleavage of 0.69. Work on A13G A24U A33G U43A yielded a self-cleavage of 1.08. Variant U12G U38C A62G has a self-cleavage of 1.18. Variant U12C A23U A24C A126U has a self-cleavage of 1.23. In the case of A13G A56G U87C A96G, the self-cleavage is reported as 1.6. In the case of U12A A24G A27G A98G, the self-cleavage is reported as 0.57. U12A U38C A51G A52G G106A U124C gave a self-cleavage of 0.04. U12A A13G A54G C113U C128U showed a self-cleavage of 0.09. For A11U U87C C113U U124C, the self-cleavage was 0.01. U12C A24G U43A A63G A117G showed a self-cleavage of 1.57. A11G U108A U132A showed a self-cleavage of 0.02. With A13G U43C A92G the self-cleavage was 0.84. With A11U A36U A66U A110G the self-cleavage was 0.12. For A13G U37C A55G, the self-cleavage was 1.04. For A13G A96U A118G, the self-cleavage was 1.11. U12C A89G A140G gave a self-cleavage of 0.65. With U12C A13G U102A A117G the self-cleavage was 1.06. In the case of U12C U38A A68G, the self-cleavage is reported as 1.69. U12C A18U A60G U70C A86U showed a self-cleavage of 1.15. A11U A51G A55G A110C showed a self-cleavage of 0.07. U12A A36G U103C gave a self-cleavage of 0.46. Work on U12C U39C A67G U70A A78U U103C yielded a self-cleavage of 0.29. For U12C A89G A125G, the self-cleavage was 0.14. With U12C A30G A114U the self-cleavage was 0.16. Variant A13G U43C A78U U127C has a self-cleavage of 0.18. With A11U A22G U39C the self-cleavage was 1.3. In the case of U12A U49C A89G A94G A98C U131C, the self-cleavage is reported as 1.08. Work on A13G U49A G80A U131C yielded a self-cleavage of 0.26. With U12A U38C U43C the self-cleavage was 2.26. For A11U G79A A110U, the self-cleavage was 0.28. Variant U12A A23G A51G A68G has a self-cleavage of 1.5. U12C G53A A54U A116U gave a self-cleavage of 0.1. In the case of U12C G31C U49A A118G A125G, the self-cleavage is reported as 0.17. Variant A13G A68G A91C has a self-cleavage of 0.94. U12A A24U A94G A110G C112U gave a self-cleavage of 0. With U12C A36U A60G A68U the self-cleavage was 0.86. U12A A36U A95G A118G showed a self-cleavage of 1.2. Variant U12C A69U A90G U103C A118G has a self-cleavage of 0.06. U12C A55G U72C U122C gave a self-cleavage of 0.04. Work on A11U A36G U43C A59G A86U U87C U127A yielded a self-cleavage of 2.33. U12C A18G A86G gave a self-cleavage of 0.89. For A11U U19C A66G A135U, the self-cleavage was 1.42. Work on U12C A56G A95G A116U U122C U127C yielded a self-cleavage of 1.01. For A13G A18U U122C U132C, the self-cleavage was 0.38. A13G A64U A116U showed a self-cleavage of 0.5. For U12C A92G U108C A111U A116G, the self-cleavage was 0.01. Work on U12G A22G U120A U131C yielded a self-cleavage of 1.57. For A11U C105A U131A U132C, the self-cleavage was 0.1. Work on U12A U19C U87C yielded a self-cleavage of 1.25. Variant U12C A22U U37C has a self-cleavage of 0.45. U12C A33G A69G gave a self-cleavage of 1.35. With A11U A89G U102C A111G A114U the self-cleavage was 0.02. In the case of A13G A52G G74U, the self-cleavage is reported as 0.25. Variant U12G C16U U127C has a self-cleavage of 0.38. U12A C35U A116G A117G gave a self-cleavage of 0.8. With A11U U12A A94U the self-cleavage was 0.76. For U12A A30U A33G A47U A63G U97C U132A, the self-cleavage was 0.71. Variant A13G U37C A116C has a self-cleavage of 0.06. With A13G U19A U39C U120C the self-cleavage was 0.54. Work on U12C A24C U72A U100C A116G yielded a self-cleavage of 0.28. A11U A54G A63G A68G U127C showed a self-cleavage of 0.91. A13G A33G A94G A129U showed a self-cleavage of 1.33. A13G A96G U108C showed a self-cleavage of 0.03. A11U C32U A55G G104A gave a self-cleavage of 0.03. In the case of A11U U39C A64U U132C, the self-cleavage is reported as 0.21. In the case of U12C A23U A27G A51U A62G C112U U130C, the self-cleavage is reported as 0.03. A13G U37C A52G G58U G106A A114U showed a self-cleavage of 0. Variant A11U A22G U102C has a self-cleavage of 1.44. A11U A47G A54G gave a self-cleavage of 0.31. For A13G U37C A54G G75U, the self-cleavage was 0.38. For U12C A23G U49A A52G A126G, the self-cleavage was 0.94. For A11U A47G G93A, the self-cleavage was 0.75. Work on U12C A23G G41A A66U A68G yielded a self-cleavage of 0.88. Variant U12C A63C A69U U103C A111G has a self-cleavage of 0.03. U12C G15A G99U showed a self-cleavage of 0.26. In the case of A13G A114G A118G U130C U131C, the self-cleavage is reported as 0.08. In the case of U12A A63G A89U U100C, the self-cleavage is reported as 2.04. U12A A30U U38C A56G showed a self-cleavage of 0.79. In the case of A11U A24C U39C, the self-cleavage is reported as 0.91. Work on A13G A27G A82U U100A yielded a self-cleavage of 0.12. Variant U12A U39A A64G U108C U122C has a self-cleavage of 0.02. A13G U19A A117G showed a self-cleavage of 0.8. Variant U12C A24G G75A has a self-cleavage of 0.26. With A11U A22G U26C the self-cleavage was 1.02. In the case of A13G A23G A30G A55G U87C, the self-cleavage is reported as 0.78. Variant A13G A78G A111G G137U has a self-cleavage of 0.1. Variant U12A A51G A66G U100C C109U has a self-cleavage of 0.44. In the case of A11U U43C U100A U131C, the self-cleavage is reported as 0.24. U12C A47G A78U A95G showed a self-cleavage of 0.31. A13G U39C A47G A54G gave a self-cleavage of 0.78. For U12G A66C A91G, the self-cleavage was 2.07. Work on U12C U19C U39C yielded a self-cleavage of 0.54. A13G A56U U139G gave a self-cleavage of 0.57. Variant U12C A67G A89G A92U has a self-cleavage of 0.15. A11U A54G A69G A114U showed a self-cleavage of 0.27. Variant A13G U37C A52G A82U A96G A117G has a self-cleavage of 0.16. U12C A22G U131C gave a self-cleavage of 0.37. A13G U39A A68G G104U gave a self-cleavage of 0.04. With A13G U37C A90U A117G the self-cleavage was 1.39. In the case of A11U A30G U87A A117G, the self-cleavage is reported as 1.89.

Source: the RNAGym collection of RNA variant scans (doi:10.7554/elife.90254)
